PubChem BioAssay (NCATS)
Values joined by “and” are separate entries in the source; they are usually repeats but may differ in a detail not shown here. Equal entries are not always repeated. Inconclusive means that the source gave no clear call. Such entries were picked first, then a sample of the others. A potency beside an inconclusive call is a rough fit, not a confirmed value. Active and inactive are the calls of the source. Calls come from the whole dose curve; as a rule, active = well fitted cell-killing curve with a large enough effect; inconclusive = small, poorly fitted or top-dose-only effect, or effect the other way; inactive = no such curve, though single readings can be large or run the other way.

assay: Viability qHTS for spleen associated tyrosine kinase inhibitor (SYKi) drug resistant MV4-11 cells (AID 1963824); conditions: SYKi-resistant MV4-11 viability, CellTiter-Glo, 72 h; series mostly up to 45 µM; viability, % of control: at the top concentration; note: nearly all actives have a fitted effect of over 35% in size
Outline: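 CellTiter-Glo luminescence, read 10 min after reagent addition, reports viability after a 72 hr compound exposure. Cells are an MV4-11 line made resistant to SYK inhibition, seeded at 500 per well onto compound-containing plates.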
Potency is the fitted concentration of half-maximal effect; tags give direction and shape of the fitted curve.

| SMILES | Potency | viability, % of control |
| --- | --- | --- |
| CCCCC(CC)CN1CN(CC(CC)CCCC)CC(C)(N)C1 (stereo unspecified) | inconclusive: 0.0841 µM [cytotoxic, full curve, poor fit] | – |
| CC1CC(OC(=O)c2ccccc2O)CC(C)(C)C1 (stereo unspecified) | – | inactive: 78.4% |
| O=C(CCCN1CCN(c2ccccn2)CC1)c1ccc(F)cc1 | inconclusive: 15 µM [cytotoxic, partial curve, poor fit] and inconclusive: 18.4 µM [cytotoxic, partial curve] | – |
| COc1ncc(Nc2ncc([C@H](C)N3CCN(S(C)(=O)=O)CC3)cc2-c2nc(C)nc(N)n2)cc1F | inconclusive: 0.291 µM [cytotoxic, full curve] | – |
| NC(N)=N/N=C/c1c(Cl)cccc1Cl | inconclusive: 29.9 µM [cytotoxic, single point] | – |
| Cc1onc(-c2ccccc2)c1C(=O)Cl | inconclusive: 33.5 µM [cytotoxic, single point] | – |
| CN1CCC(N(Cc2cccs2)c2ccccc2)CC1 | inconclusive: 0.0009 µM | – |
| CC(C)(O)c1ccccc1CC[C@@H](SCC1(CC(=O)O)CC1)c1cccc(/C=C/c2ccc3ccc(Cl)cc3n2)c1 | inactive and inconclusive: 18.4 µM [cytotoxic, partial curve] | – |
| Cc1c(C(=O)N2CCOc3ccc(-c4ccc(N)nc4)cc3C2)ccc(S(C)(=O)=O)c1F | inconclusive: 3.32 µM [cytotoxic, full curve] | – |
| CCC(C(=O)NC(=O)NC(C)=O)c1ccccc1 (stereo unspecified) | – | inactive: 100% |
| O=C1NCCN1CCN1CCC(c2cn(-c3ccc(F)cc3)c3ccc(Cl)cc23)CC1 | active: 1.19 µM | – |
